In PMC12040169 (PLOS Biology, 2025):
The other results are listed elsewhere or left out.

Tested on: T1, C. trachomatis L2/434/Bu expressing GFP (CTL2-GFP)
T1 construct: L2/434/Bu GFP intracellular growth in HeLa cells
Parameters: species or system HeLa; C. trachomatis total inclusion area by high-content imaging, normalised to DMSO
Conditions: total inclusion area; 28.5 h, 10 µM; inhibitor
How it was run: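 Post-fluorescence-read fixation, DNA staining with Hoechst and high-content imaging; GFP inclusion area and number per well, and nuclei counts, used as proxies for bacterial growth and host viability.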

Row | SMILES | % of control remaining
1 | Cc1nnnn1CCC(=O)NCCc1cn2ccccc2n1 [CBK306816] | 44.7178
2 | C=C(C)CNC(=O)c1cc(-c2cccc(NC(C)=O)c2)cnc1N(C)S(C)(=O)=O [CBK076622] | 102.052
3 | Cc1ccc(NC(=O)Cc2ccncc2)c(C)n1 [CBK200385] | 33.3964
4 | C/C(=C(/C(=O)N(N)c1nc2ccccc2s1)C(=O)C(F)(F)F)N1CCC(C(N)=O)(N2CCCCC2)CC1 [CBK265787] | 74.1057
5 | O=C(CSc1nnc(-c2ccco2)o1)N1CCN(CC(=O)N2CCCC2)CC1 [CBK295136] | 107.109
6 | Cc1ncccc1C(=O)N1CCN(Cc2ccccc2)CC1 [CBK200171] | 112.17
7 | COc1cc2c(cc1OC)CN(Cc1csc(C)n1)CC2 [CBK126443] | 95.7915
8 | OC(CNc1nccnc1-c1cccc(C(F)(F)F)c1)COc1ccccc1 (stereo not drawn) [CBK037010] | 131.165
9 | O=C1NCCN/C1=C\C(=O)c1ccc(Br)cc1 [CBK261427] | 89.8282
10 | O=C(Nc1sc2c(c1C(=O)N1CCOCC1)CCCCC2)c1cccs1 [CBK307099] | 96.1949
11 | O=C(CSc1ccc(-n2ccnc2)nn1)Nc1cccnc1 [CBK287635] | 89.9701
12 | Nc1ncnc(Nc2cccc(F)c2)n1 [CBK017447] | 95.2133
13 | CCOC(=O)CN1C(=O)S/C(=C/c2cc(C)n(-c3ccc(S(N)(=O)=O)cc3)c2C)C1=O [CBK265410] | 104.39
14 | CC(=O)N1C[C@@H]2OCC(=O)N(Cc3ccccn3)[C@@H]2C1 [CBK289245] | 130.528
15 | c1ccc2[nH]c(SCCCCCSc3nc4ccccc4[nH]3)nc2c1 [CBK025418] | 91.2805
16 | Cc1nc(N2CCOCC2)nc(Nc2ccc(Cl)cc2)c1[N+](=O)[O-] [CBK264685] | 98.9149
17 | CC(C)(C)OC(=O)NCc1ccc(CNCc2ccc(-c3ccccc3)cc2)cc1 [CBK056706] | 56.9843
18 | COCCN1C(=O)C2(CC(=O)N(C)C2=O)c2ccccc21 (stereo not drawn) [CBK075387] | 114.899
19 | NCc1ccc(CN(Cc2ccc(-c3ccccc3)cc2)C(=O)Nc2ccccc2C(F)(F)F)cc1 [CBK046116C] | 72.1018
20 | O=C1NC/C=C/CC2(CCN(Cc3ccccc3)CC2)C(=O)NCCOc2ccccc21 [CBK292097] | 95.073
21 | CC1(C)Cc2c(sc(NC(=O)Cc3ccccc3)c2C(=O)O)CO1 [CBK264354] | 106.555
22 | O=C(Nc1nnc(COc2ccccc2)s1)c1cccc2ccccc12 [CBK300487] | 122.85
23 | CC(C)CCNCc1ccc(-c2cn(CC(=O)NCCc3ccccc3)nn2)cc1 [CBK164740] | 77.8231
24 | COc1ccc([C@@H]2CCN(C(=O)Cc3ccccc3F)C[C@H]2O)cc1 [CBK283756] | 79.7558
25 | Cc1ccc(S(=O)(=O)N(CC(=O)O)c2ccc(C)c(C)c2)cc1 [CBK263778] | 110.761
26 | COc1ccc(C)cc1S(=O)(=O)N(CCO)c1cc(N2CCNCC2)c2occc2c1 [CBK067894C] | 78.5023

Row | SMILES | % of control remaining
27 | O=S(=O)(Nc1cc(C(F)(F)F)ccc1N1CCOCC1)c1ccc(-c2ccccn2)s1 [CBK062557] | 78.34
28 | COc1ccc(CCN[C@H]2CCC[C@@H]2O)cc1OC [CBK005354G] | 32.1829
29 | Cn1nnnc1SCCNC(=O)Nc1cccc(N2CCOC2=O)c1 [CBK306593] | 76.4029
30 | CNC(=O)CN(CCO)Cc1cc(Br)ccc1F [CBK304941] | 59.9815
31 | CC(C)NS(=O)(=O)c1ccc(NC(=O)Cc2cccc3ccccc23)cc1 [CBK268102] | 106.115
32 | COC(=O)CNC(c1ccccc1)c1cc(Br)ccc1N (stereo not drawn) [CBK019222] | 91.9543
33 | c1ccc(CN2CCN(Cc3ccccc3)C2c2cccnc2)cc1 [CBK260885] | 111.969
34 | O=C(OCC=C=CSc1ccc([N+](=O)[O-])cc1)c1ccc(F)cc1 [CBK265650] | 114.685
35 | Cc1ncc([N+](=O)[O-])n1CCOC(=O)NC(N1CCOCC1)C(Cl)(Cl)Cl (stereo not drawn) [CBK261299] | 90.8087
36 | CC(C)(CO)CCCn1cncc1-c1cnn(-c2ccc(F)cc2)c1 [CBK281466] | 80.8211
37 | Cn1c(=O)c2cnc(-c3ccccc3Cl)nc2n(C)c1=O [CBK291219] | 92.1641
38 | O=C(Cn1c(=O)n(Cc2cccnc2)c(=O)c2ncccc21)NC1CCCC1 [CBK287666] | 89.1123
39 | Cc1csc(Sc2nccnc2N2CCCC2)n1 [CBK093735] | 95.5842
40 | CN(C(=O)C1CCC1)c1nc2c(s1)CCc1c-2cnn1C [CBK281931] | 70.1973
41 | CSCCN1CCC(Oc2nccnc2OCCN2C(=O)CCC2=O)CC1 [CBK084351] | 87.8098
42 | Cc1ccc(/C=N/NC(=O)C(C)Oc2ccccc2Br)o1 (stereo not drawn) [CBK262226] | 73.6314
43 | O=c1nc(O)c(I)cn1C1OC(CO)C(O)C1O (stereo not drawn) [CBK015625] | 69.7988
44 | CC(=O)N1CCc2cc(C(=O)N[C@@H](Cc3ccccc3)C(=O)O)ccc21 [CBK298303] | 97.1217
45 | COc1cccc(CNn2cnnc2S)c1OCc1ccccc1 [CBK265781] | 112.947
46 | Cc1ccccc1-c1csc2c(=O)[nH]c(N3CCC4(CC3)OCCO4)nc12 [CBK291141] | 91.3384
47 | CC(=O)Nc1cccc(CN2CCCC2CN2CCCC2CO)c1 (stereo not drawn) [CBK305163] | 105.93
48 | O=C(Cc1ccc(Cl)cc1)NC(=S)Nc1ccccc1O [CBK263905] | 117.845
49 | CN(C)C(=O)CN1CCCC2(CCN(C(=O)c3cc(F)c(F)cc3F)C2)C1 (stereo not drawn) [CBK132024] | 111.422
50 | Cc1nc2ccc(C(=O)N3CCC(O)(c4ccccc4C)CC3)cc2[nH]1 [CBK283300] | 84.5449
51 | Cc1cc(C(=O)Nc2cc(F)c(N3CCCC3)c(F)c2)c(C)n1C1CC1 [CBK306226] | 33.9267
